{"source": "PubChem BioAssay AID1345083", "about": "(National Center for Advancing Translational Sciences (NCATS), 2018)", "note": "The whole screen tested about 94,000 compounds, of which about 6,200 (6.6%) were called active. The inconclusive results got no clear call from the source; some entries with a clear call stand among them for comparison. Calls follow the shape of the dose curve; as a rule, active = well fitted inhibition curve with a large enough effect; inconclusive = small, poorly fitted or top-dose-only effect; inactive = flat fitted curve, though single readings scatter. Potencies beside an inconclusive call are fits to weak or partial responses and may not hold up. Potency is read from the fitted curve at half-maximal effect; tags tell the direction and shape of the fitted curve."}
{"assay": "Cytotoxic Profiling in HEK 293 Cell Line of Diverse Libraries Using Quantitative High-Throughput Screening; also: nearly all actives have a fitted effect of over 60% in size", "conditions": "HEK 293 viability, ATP luminescence (CellTiter-Glo), 48-72 h; series mostly up to 115 µM", "how_it_was_run": "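CellTiter-Glo luminescence (cellular ATP) was read after 48 or 72 hr of compound exposure at 37 degree Celsius. Cells were HEK 293 plated at 250 cells/well.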"}
{"smiles": "O=C(NCCNC(=O)c1cccc(-c2ccsc2)c1)NC1CCCC1", "Potency": "inconclusive: 100 µM [inhibitor, single point]"}
{"smiles": "N#Cc1cccc(CN2CC(N3CC(C(=O)NCc4ccccc4)CC3=O)C2)c1", "note": "(configuration not stated)", "Potency": "inconclusive: 50.1 µM [inhibitor, partial curve, poor fit]"}
{"smiles": "O=C1NCCCCCN(Cc2cccnc2)[C@@H]2CN(C(=O)NC3CCCCC3)CC[C@@H]12", "Potency": "inactive"}
{"smiles": "CCOCC1(C)COc2ccc(C(=O)Nc3ccccn3)cc2N1", "note": "(configuration not stated)", "Potency": "inconclusive: 89.1 µM [inhibitor, partial curve]"}
{"smiles": "O=C(c1ccc2[nH]ncc2c1)N1CCOCC12CCN(Cc1cccc(OC(F)(F)F)c1)CC2", "Potency": "inconclusive: 50.1 µM [inhibitor, partial curve, poor fit]"}
{"smiles": "CNC(=O)c1cc2cc(-c3c(C)noc3C)nc(-c3cccc(OC)c3OC)c2o1", "Potency": "inconclusive: 39.8 µM [inhibitor, full curve]"}
{"smiles": "COC(=O)CC[C@H]1CNC(=O)[C@@H]2[C@@H](CCN2Cc2nc3ccccc3n2C)N1C", "Potency": "inconclusive: 112 µM [inhibitor, partial curve, poor fit]"}
{"smiles": "CCCNc1cc(N2CCC(CCC(=O)NCc3ccccc3Cl)CC2)ncn1", "Potency": "inconclusive: 89.1 µM [inhibitor, single point]"}
{"smiles": "Cc1ccsc1C(=O)NC1CCN(c2cc(-c3ccc(Cl)cc3)[nH]n2)C1", "note": "(configuration not stated)", "Potency": "active: 50.1 µM"}
{"smiles": "O=C(NC1CCCCCC1)c1nnn2cc(-c3ccc(Cl)cc3)[nH]c(=O)c12", "Potency": "inconclusive: 79.4 µM [inhibitor, single point]"}
{"smiles": "Cc1cc(NC(=O)CCn2ccn3nc4c(c3c2=O)CCCC4)ccc1F", "Potency": "inconclusive: 22.4 µM [inhibitor, full curve]"}
{"smiles": "O=C(c1ccccc1)N(C1CC1)C1CCOC2(CCNCC2)C1", "note": "(configuration not stated)", "Potency": "inactive"}
{"smiles": "O=C1CC(c2ccccc2)N(Cc2ccncc2)CCCN(C(=O)c2ccoc2)CCN1", "note": "(configuration not stated)", "Potency": "inconclusive: 89.1 µM [inhibitor, partial curve, poor fit]"}
{"smiles": "O=C(Cn1ccn2nc(-c3ccc(F)cc3)c(CO)c2c1=O)N1CCCc2ccccc21", "Potency": "inconclusive: 44.7 µM [inhibitor, partial curve, poor fit]"}
{"smiles": "Cc1noc2c(NCc3ccccc3)cc(-c3ccccc3)nc12", "Potency": "inconclusive: 70.8 µM [inhibitor, partial curve, poor fit]"}
{"smiles": "CCOc1ccc(C(=O)N2CCCN(c3cc(-c4ccc(OC)cc4)[nH]n3)CC2)cc1OCC", "Potency": "inconclusive: 89.1 µM [inhibitor, single point]"}
{"smiles": "COC(=O)CNC(=O)NCC(=O)N1CCCCCNC(=O)CC1c1ccccc1", "note": "(configuration not stated)", "Potency": "inactive"}
